# Measurements published in publication PMC4336329 (PLoS ONE, 2015).
# The campaign covered roughly 310,000 compounds. About 14,000 (4.5%) showed an effect of 50% or more. The effect is printed as a negative number. The list shows a part of the results.
# Biological target: human ether-à-go-go-related gene (hERG) potassium channel (human, UniProt Q12809)
# Assay: primary screen, population patch clamp on CHO cells stably expressing hERG
# 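Further: peak tail current of the secondary pulse compared with the same well before compound.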
# Chain of human ether-à-go-go-related gene (hERG) potassium channel (Q12809 whole entry, looked up): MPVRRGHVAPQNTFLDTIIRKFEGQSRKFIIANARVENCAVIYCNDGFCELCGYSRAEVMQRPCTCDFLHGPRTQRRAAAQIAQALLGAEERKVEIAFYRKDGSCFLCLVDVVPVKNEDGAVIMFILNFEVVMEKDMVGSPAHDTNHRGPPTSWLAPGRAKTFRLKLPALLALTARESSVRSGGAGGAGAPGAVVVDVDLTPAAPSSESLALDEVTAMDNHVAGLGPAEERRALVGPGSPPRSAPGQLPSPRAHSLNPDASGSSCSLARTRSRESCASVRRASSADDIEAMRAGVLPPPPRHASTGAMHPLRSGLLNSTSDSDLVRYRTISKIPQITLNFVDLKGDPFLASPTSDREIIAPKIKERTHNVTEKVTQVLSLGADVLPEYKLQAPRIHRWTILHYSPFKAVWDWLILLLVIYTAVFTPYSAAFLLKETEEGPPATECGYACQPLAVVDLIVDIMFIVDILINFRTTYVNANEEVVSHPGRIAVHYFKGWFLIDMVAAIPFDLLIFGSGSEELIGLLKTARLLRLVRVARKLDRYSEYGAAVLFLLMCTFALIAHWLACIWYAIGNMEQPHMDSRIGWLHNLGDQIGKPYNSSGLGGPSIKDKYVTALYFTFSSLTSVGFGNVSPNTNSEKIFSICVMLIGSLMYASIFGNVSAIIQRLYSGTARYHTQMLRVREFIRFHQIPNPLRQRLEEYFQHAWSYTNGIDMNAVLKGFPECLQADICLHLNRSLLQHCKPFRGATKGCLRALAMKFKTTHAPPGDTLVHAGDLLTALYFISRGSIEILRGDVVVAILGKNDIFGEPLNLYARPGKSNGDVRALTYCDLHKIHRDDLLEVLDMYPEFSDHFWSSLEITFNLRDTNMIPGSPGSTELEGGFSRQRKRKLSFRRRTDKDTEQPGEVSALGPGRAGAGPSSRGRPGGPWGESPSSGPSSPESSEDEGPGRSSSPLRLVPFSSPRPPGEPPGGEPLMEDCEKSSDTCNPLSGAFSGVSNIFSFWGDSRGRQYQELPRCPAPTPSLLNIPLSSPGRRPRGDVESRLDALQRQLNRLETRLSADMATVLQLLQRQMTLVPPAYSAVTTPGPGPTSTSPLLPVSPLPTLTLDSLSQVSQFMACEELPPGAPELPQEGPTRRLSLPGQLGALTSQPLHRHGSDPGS
row,Structure (SMILES),"hERG current change (%, negative = inhibition) at 10uM"
1,OCCC1CN(Cc2ccncc2)CCN1C1CCCC1 (centres unmarked),-8.58%
2,CC1CC(C)CN(CCCNC(=O)c2ccc(CS(=O)(=O)Cc3cccc(Cl)c3)o2)C1 (centres unmarked),-69.1%
3,COc1ccc(C)cc1NC(=O)c1cccc(C(=O)Nc2cc(C)ccc2OC)n1,1.3%
4,COc1ccc(NC(=O)CC2C(=O)N(Cc3cccs3)C(=S)N2C(C)C)cc1 (centres unmarked),4.67%
5,CCc1cc(=O)oc2cc(OS(C)(=O)=O)ccc12,-5.44%
6,O=C(CSc1nc2ncc(Cl)cc2[nH]1)Nc1ccccc1-c1ccccc1,14.5%
7,CN1CCN(C(=O)/C=C/c2ccc(C#N)cc2)CC1,-54.3%
8,CC(=O)NC(C)Cc1cn(Cc2ccccc2)c2ccccc12 (centres unmarked),16.3%
9,COc1ccc(-n2nc(C)c3c(=O)c4c([nH]c32)CCCC4)cc1,4.08%
10,CCN(CC)S(=O)(=O)c1ccc(-c2nnc(SCC(=O)Nc3ccc(OC)c(OC)c3)o2)cc1,-8.44%
11,COc1cc(CNn2cn[nH]c2=S)cc(Cl)c1OCc1ccc(F)cc1,-22.4%
12,Cc1nn(CC(=O)Nc2sc3c(c2C#N)CCC(C(C)(C)C)C3)c(C)c1[N+](=O)[O-] (centres unmarked),8.48%
13,COc1c(S(=O)(=O)NCCCN2CCOCC2)ccc(Cl)c1Cl,-6.95%
14,CC(C)CC(c1nnnn1C(C)(C)C)N1CCN(C2CCCC2)CC1.Cl (centres unmarked),-5.12%
15,CCN1CCN(Cc2ccc(NC(=O)c3ccc(C)c(NC(=O)N4CCNC4=O)c3)cc2C(F)(F)F)CC1.O=C(O)C(F)(F)F,3.66%
16,O=S(=O)(c1ccc(=S)[nH]c1)N1CCOCC1,4.93%
17,Cc1ccc(NC(=O)c2cc(C)nc3ccccc23)c(Br)c1,-15.2%
18,CC(C)(C)NS(=O)(=O)c1ccc(-c2csnn2)s1,-1.05%
19,O=S(=O)(Nc1cccc(-c2ccc(N3CCOCC3)nn2)c1)c1cc(Cl)ccc1Cl,-26.8%
20,Cn1cc(C(c2ccccn2)c2cn(C)c3ccccc23)c2ccccc21,8.3%
21,CCOCCn1cnc2sc(C(=O)NCCCN3CCOCC3)c(C)c2c1=O,4.31%
22,N#C/C(=C\C1=C(N2CCOCC2)C(=C\c2ccc(Cl)cc2)/CC1)C(=O)Nc1ccccc1F,5.55%

row,Structure (SMILES),"hERG current change (%, negative = inhibition) at 10uM"
1,CC(=O)Nc1ccc(NC(=S)NC(=O)C2CC2)cc1,15.6%
2,Br.CCOc1ccccc1OCC(=O)NN1Cc2ccccc2C1=N,-73.5%
3,COc1ccc(CNC(=O)C(NC(C)=O)C(C)C)cc1OC (centres unmarked),11.5%
4,O=C(O)c1cc2ccc3cccc4ccc(c1)c2c34,5.41%
5,Cc1ccc(S(=O)(=O)N2CCN(C(=O)COC(=O)c3cc(C)oc3C)CC2)cc1,7.79%
6,COC(=O)Cc1c(OC)ccn(CCc2c[nH]c3ccccc23)c1=O,8.74%
7,c1ccc2c(c1)OCC(c1csc3ncnc(N4CCCC4)c13)O2 (centres unmarked),-36.7%
8,CNc1ccc(C(O)(C(F)(F)F)C(F)(F)F)cc1C(O)(C(F)(F)F)C(F)(F)F,14.6%
9,O=C(Cn1cccc1C(=O)c1ccccc1)NCc1ccc(F)cc1,4.99%
10,COC(=O)[C@]1(CC(C)C)N[C@H](c2ccc(-c3ccc4c(c3)OCO4)cc2)[C@@H]2C(=O)N(C)C(=O)[C@@H]21.O=C(O)C(F)(F)F,14.9%
11,COC(=O)c1ccc(CNC(=O)c2ccc(S(=O)(=O)N3CCCC(C)C3)cc2)cc1 (centres unmarked),0.555%
12,COc1ccc(-c2nnc(SCc3nnc(-c4ccc(Cl)cc4)o3)n2-c2ccccc2)cc1,-56%
13,N/C(=N\OC(=O)CC1CCCCC1)c1cccnc1,-16.6%
14,COc1ccc(/C=N/NC(=O)c2nc(-c3ccccc3)cc(-c3ccccc3)n2)cc1O,-9.34%
15,CC(NC(=O)/C=C/c1ccco1)c1nc2ccccc2n1Cc1c(Cl)cccc1Cl (centres unmarked),-11%
16,O=C(Cc1n[nH]c(=O)c2ccccc12)OCC(=O)N(Cc1ccccc1)Cc1ccccc1,-33.9%
17,CCc1ccc(C2NC(=S)NC3=C2C(=O)CC(C)(C)C3)cc1 (centres unmarked),11.9%
18,Cc1ccc(CC(=O)Nc2cccc(S(=O)(=O)N3CCOCC3)c2)cc1,-21.5%
19,O=C(COC(=O)c1cccc(C(=O)OCC(=O)NC2CC2)n1)NC1CC1,21.5%
20,Cc1ccc(N=C2NC(=O)c3cc([N+](=O)[O-])ccc32)cc1,-3.7%
21,O=C(/C=C\Nc1ccc2c(c1)OCO2)c1ccc(Cl)s1,18.7%
22,CCOc1cc2[nH]c(=S)n(Cc3ccc(C(=O)NCCCOC)cc3)c(=O)c2cc1OCC,24.9%

row,Structure (SMILES),"hERG current change (%, negative = inhibition) at 10uM"
1,CCC(=O)Nc1cccc(-n2nnnc2SCC(=O)N2CCCCC2)c1,15.3%
2,CCO/N=C1\C(=O)N(c2ccccc2)c2ccccc21,1.67%
3,COc1cc(CNC2CCCC2)c(Br)cc1OC1CCCC1.Cl,-45.9%
4,O=C(O)/C(=C\c1ccccc1OC(F)F)Sc1nnc(-c2ccc(F)cc2)o1,-26%
5,CCCN(CCC)c1nc(C#N)nc(N(CCC)CCC)n1,9.42%
6,O=C(CCCn1nnc2ccccc2c1=O)N[C@@H](Cc1ccccc1)C(=O)O,13%
7,O=c1[nH]c2c(cnn2-c2ccc(Cl)cc2)c(=O)n1-c1cccc(Cl)c1,25%
8,O=C(NCc1ccccc1Cl)c1cc2c(s1)CS(=O)(=O)C2,-4.86%
9,O=C(NCC(c1cccs1)N1CCOCC1)c1ccc(Cl)c([N+](=O)[O-])c1 (centres unmarked),-31.9%
10,CCCOC1CCCN(C(=O)CCc2nnc(CCCCc3ccccc3)o2)C1 (centres unmarked),-23%
11,COc1ccc(CCNC(=O)CSCc2ccc(C)cc2)cc1OC,-1.96%
12,CCC1CCCCN1CCCNC(=O)c1ccc2c(c1)c(C)c(C)n2C (centres unmarked),-35%
13,O=C(COc1ccccc1)Nc1ccc2c(c1)Cc1cc(NC(=O)COc3ccccc3)ccc1-2,-0.491%
14,O=C(CN1C(=O)c2ccccc2C1=O)OCCOCCN=C1NS(=O)(=O)c2ccccc21,6.78%
15,CCN(CC)c1nc(C)c2c(c1C#N)CC(C)(C)OC2,1.02%
16,COc1ccc(N=C2S/C(=C\c3ccc(Cl)c([N+](=O)[O-])c3)C(=O)N2CCN(C)C)cc1.Cl,-9.18%
17,OCC[C@@H]1C[C@@H](O)[C@H](O)[C@@]2(CCc3ccccc3O2)O1,20.5%
18,CCc1nc(OCCN(CC)CC)c2oc3ccccc3c2n1.Cl,-58.9%
19,Cc1c(NC(=O)c2ccc(Cl)c(S(=O)(=O)N3CCOCC3)c2)c(=O)n(-c2ccccc2)n1C,16.6%
20,CC(C(=O)NCc1ccc2c(c1)OCO2)N(c1ccccc1)S(C)(=O)=O (centres unmarked),-8.81%
21,Cc1[nH]c2c(Br)cccc2c1[C@H]1[C@@H](CC#N)C1(C)C,6.14%
22,O=C(O)CC(Sc1n[nH]c(=S)s1)C(=O)O (centres unmarked),18.2%

row,Structure (SMILES),"hERG current change (%, negative = inhibition) at 10uM"
1,Cc1cccn2c(CNCCCOc3cccnc3)c(C(=O)N3CCOCC3)nc12,3.98%
2,CCOC(=O)[C@@H]1[C@H]2COc3cc(OC)ccc3[C@H]2N2C(=O)N(c3ccc(C(F)(F)F)cc3)C(=O)[C@@]12C,4.74%
3,CC(=O)c1ccc(Cc2ncc(C(F)(F)F)cc2Cl)s1,0.338%
4,CCCCN(C(=O)C1CC1)C1CCS(=O)(=O)C1 (centres unmarked),-17.3%
5,CNCc1nc2ccccc2[nH]1.Cl,22.5%
6,COc1ccc(CCNC(=O)C2CCN(C(=O)c3ccc(C(C)(C)C)cc3)CC2)cc1OC,5.96%
7,O=C(N/N=C/c1cccc([N+](=O)[O-])c1)c1ccc2c(c1)OCCO2,7.63%
8,CCn1c(=O)c(C(=O)NCc2ccc3c(c2)OCO3)c(O)c2ccccc21,10.8%
9,NN(Cc1ccccc1)C(=S)Nc1ccc(Cl)c(Cl)c1,8.32%
10,CC(C)N(C(=O)CN1C(=O)NC(c2ccccc2)(c2ccccc2)C1=O)C(C)C,6.58%
11,Cc1nn(Cc2ccccc2)c(Cl)c1/C=C1\NC(=S)NC1=O,-0.0551%
12,Nc1ccc(Cl)c(S(=O)(=O)Nc2cccc(Cl)c2)c1,6.88%
13,CN(CC(O)Cn1c2ccccc2c2ccccc21)S(C)(=O)=O (centres unmarked),5.57%
14,COc1ccc(NS(=O)(=O)NC(=O)c2c[nH]c3ccccc23)cc1,9.1%
15,O=S(=O)(c1ccccc1)N1N=C(c2ccccc2)CC1c1ccco1 (centres unmarked),11%
16,CC(=O)N1CCN(c2ccc([N+](=O)[O-])cc2)CC1,-55.9%
17,CC1CCCCN1C(=O)c1ccc(COc2ccc([N+](=O)[O-])cc2)o1 (centres unmarked),-69.9%
18,Cc1cc(C)nc(SCCCNCc2c(F)cccc2Cl)n1.Cl,-8.96%
19,O=C(c1cc2cc(F)ccc2[nH]1)N1CCc2ccccc21,7.64%
20,CC(=O)OCC1O[C@@H](O[C@@H]2C[C@H]3C(C)(C)[C@H](OC(C)=O)CC[C@]3(C)[C@H]3CC[C@]45C[C@]4(CC[C@H]5[C@@H](C)C[C@@H](O)[C@H](O)C(C)(C)O)[C@@]32C)[C@H](O)[C@@H](O)[C@@H]1O (some centres unmarked),5.55%
